# Screen size: about 200,000 compounds; about 10 (0.005%) were called active. The shares of active, inactive and inconclusive entries below differ from those in the screen. Calls follow the shape of the dose curve; as a rule, active = well fitted inhibition curve with a large enough effect; inconclusive = small, poorly fitted or top-dose-only effect, or effect the other way, or another doubt; inactive = no such curve, though single readings can be large or run the other way. Potencies of inconclusive entries are doubtful fits and often do not repeat.
# Target: Lysosomal alpha-glucosidase (Homo sapiens) (UniProt P10253)
# Assay: qHTS Assay for Inhibitors of Human alpha-Glucosidase as a Potential Chaperone Treatment of Pompe Disease;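 as to activity change, negative = inhibition: plate controls were uninhibited enzyme wells for no effect and no-enzyme background for full effect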
# Conditions: purified human GAA, 4-MU-alpha-glucoside fluorescence; activity change, negative = inhibition: at 76.9 µM (top of the series) unless noted
# Outline: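 Activity normalized between no-enzyme (basal) and enzyme-only wells. Conditions: 4 nM human enzyme, 400 uM fluorogenic substrate, citrate/phosphate pH 5.0 with Tween-20, 20 min room temperature, compounds up to 77 uM.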
# Potency is read from the fitted curve at half-maximal effect; tags tell the direction and shape of the fitted curve.
Compound,Potency,"activity change, negative = inhibition"
O=C1Nc2ccccc2N(O)N1c1ccc(Cl)cc1,inactive,–
O=C(Nc1ccc(Oc2ccccc2)cc1)c1cnc2n(c1=O)CCS2,–,inconclusive: 16% [activator]
Cc1ccc(-c2csc(NC(=O)/C=C/c3cccs3)n2)cc1C,"inconclusive: 1.78 µM [inhibitor, full curve]",–
CCCCCN1C(=O)Cn2c(nc3ccccc3c2=O)C1C (stereo not drawn),–,inconclusive: 9.94% [activator]
N/C(=N\OC(=O)CCCC(=O)O)c1ncc(C(F)(F)F)cc1Cl,"inconclusive: 15.8 µM [inhibitor, partial curve]",–
COc1cc(CNn2nnnc2N)ccc1OCC(=O)NC(C)(C)C,"inconclusive: 5.01 µM [inhibitor, single point]",–
CC1(C)Cc2c(c(-c3ccccc3)[nH]c(=O)c2C#N)CS1,inactive,–
COC(=O)c1ccc(COC(=O)CCc2nc(-c3ccccc3)c(-c3ccccc3)o2)cc1,"inconclusive: 44.7 µM [inhibitor, partial curve, poor fit]",–
Cc1ccc(S(=O)(=O)NCC(=O)OC(C(=O)c2ccccc2)c2ccccc2)cc1 (stereo not drawn),"inconclusive: 12.6 µM [inhibitor, partial curve, poor fit]",–
Cc1ccc(SCc2cc(=O)[nH]c(N3CCOCC3)n2)cc1,"inconclusive: 22.4 µM [inhibitor, partial curve]",–
O=C(NCCCn1ncc2ccccc21)c1cc(COc2c(F)cccc2F)on1,"inconclusive: 44.7 µM [inhibitor, single point]",–
CC(C)(C)OC(=O)NNC(=S)NCc1ccc(Cl)cc1,"inconclusive: 3.55 µM [inhibitor, partial curve, poor fit]",–
COc1cc(CNc2ccc3[nH]c(=O)[nH]c3c2)cc(Br)c1OCC(=O)NC(C)(C)C,inactive,–
CCC(C)(C)NC(=O)C(c1ccc(C)cc1)N(Cc1cccs1)C(=O)c1ccc2c(c1)OCCO2 (stereo not drawn),"inconclusive: 1 µM [inhibitor, full curve, poor fit]",–
Cc1ccc(N(CC(=O)N/N=C/c2cccs2)S(C)(=O)=O)cc1Cl,"inconclusive: 11.2 µM [inhibitor, partial curve]",–
COc1ccc(-c2cc3nc(-c4ccccc4)cc(N4CCCC(O)C4)n3n2)cc1 (stereo not drawn),"inconclusive: 39.8 µM [activator, partial curve]",–
COC(OC)C12c3ccccc3C(c3ccccc31)C1C(=O)N(c3cccnc3)C(=O)C12 (stereo not drawn),–,inconclusive: 5.53% [activator]
CCOC(=O)C1CCN(S(=O)(=O)c2ccc(Br)c(OCC)c2)CC1,"inconclusive: 56.2 µM [inhibitor, single point]",–
Cc1nn(-c2ccccc2)c(C)c1C(=O)OCC(=O)N1CCN(S(=O)(=O)c2ccccc2)CC1,"inconclusive: 31.6 µM [inhibitor, single point]",–
CCOc1ccc(OCC)c(C2C(C#N)=C(N)N(c3cccnc3)C3=C2C(=O)CC(C)(C)C3)c1 (stereo not drawn),inactive,–
COc1cc2c(cc1OC)CN(S(=O)(=O)c1ccc3c(c1)OCCO3)CC2,–,inactive: -12.2% [at 15.4 µM]

Compound,Potency,"activity change, negative = inhibition"
O=C1CCCC2=C1C(c1ccco1)Nc1ccc(C(=O)c3ccccc3)cc1N2 (stereo not drawn),"inconclusive: 50.1 µM [inhibitor, single point]",–
COCCn1c(=O)[nH]c2cc(C(=O)NCC3CCCO3)ccc2c1=O (stereo not drawn),"inconclusive: 25.1 µM [activator, partial curve]",–
O=C(CN1CCN(c2ccc(Cl)cc2)CC1)NCc1cccs1,–,inconclusive: 13.6% [activator]
Cc1ccccc1CN(C)CC(=O)Nc1cccc(S(=O)(=O)N(C)c2ccccc2)c1,"inconclusive: 3.98 µM [inhibitor, full curve]",–
O=C(c1ccccc1)N1CCN(Cc2cccc(Oc3ccccc3)c2)CC1,"inconclusive: 50.1 µM [inhibitor, single point]",–
O=C(c1cc(C(=O)NCCc2ccccc2)c(=O)n(CCc2ccccc2)c1)c1cc(Cl)ccc1O,"inconclusive: 50.1 µM [inhibitor, single point]",–
Cc1cc(C)cc(Oc2nc(-c3ccccc3)cc(C)c2S(C)(=O)=O)c1,"inconclusive: 35.5 µM [inhibitor, single point]",–
COc1cc([C@H]2[C@@H]3CCCC[C@]3(O)CCN2CC(=O)Nc2ccc(C)cc2)ccc1O,"inconclusive: 1.26 µM [inhibitor, full curve, poor fit]",–
S=c1[nH]nc(C2CCCCC2)n1/N=C/c1ccc(Br)s1,"inconclusive: 39.8 µM [inhibitor, single point]",–
O=[N+]([O-])c1ccc(N/N=C/c2c[nH]c3ccccc23)cc1,inactive,–
C=CCn1cc(C(=O)NCc2ccc(Cl)cc2)c(=O)c2cc(S(=O)(=O)N(CC)CC)ccc21,"inconclusive: 44.7 µM [inhibitor, single point]",–
O=C(/C=C/c1ccc(Cl)cc1)NC(=S)NN1CCCCC1c1cccnc1 (stereo not drawn),"inconclusive: 50.1 µM [inhibitor, single point]",–
CSC1=C(C#N)C(c2ccccc2Cl)C(C(=O)c2cccs2)C(O)(C(F)(F)F)N1 (stereo not drawn),"inconclusive: 50.1 µM [inhibitor, single point]",–
COC(=O)c1sc(SC)c(S(=O)(=O)C(C)C)c1N/N=C(\C#N)C(=O)c1ccccc1,"inconclusive: 39.8 µM [inhibitor, single point]",–
Cc1nc2n(n1)C(c1ccccc1)C1=C(CC(c3ccco3)CC1=O)N2 (stereo not drawn),"inconclusive: 6.31 µM [activator, partial curve]",–
Cc1oc2c(O)c(O)ccc2c(=O)c1-c1ccccc1,–,inactive: 5.91% [at 15.4 µM]
Cc1cccc(C)c1N1C(=O)CC(N(O)c2ccccc2)C1=O (stereo not drawn),inactive,–
Cc1cc(Nc2ccc(F)cc2Cl)n2ncnc2n1,"inconclusive: 56.2 µM [inhibitor, single point]",–
O=S(=O)(Nc1nc2cc3c(cc2nc1Cl)OCCO3)c1ccccc1,"inconclusive: 39.8 µM [activator, partial curve]",–
O=C(NC1CCCc2c1cnn2-c1ccc(F)cc1F)c1ccccn1 (stereo not drawn),"inconclusive: 0.178 µM [inhibitor, full curve, poor fit]",–
CCn1cc(-c2ccnc3cc(C(=O)O)nn23)c(C)n1,"inconclusive: 39.8 µM [activator, partial curve]",–

Compound,Potency,"activity change, negative = inhibition"
CC(=O)N1CCN(S(=O)(=O)c2cccc(C(=O)Nc3ccccc3N3CCOCC3)c2)CC1,"inconclusive: 56.2 µM [inhibitor, single point]",–
COCCn1cc(C(=O)N2CCC(C)CC2)c2c3ccccc3n(C)c2c1=O,"inconclusive: 35.5 µM [activator, partial curve]",–
O=C(Nc1ccccc1)C12CC3CC(C1)CC(n1cnc([N+](=O)[O-])n1)(C3)C2,"inconclusive: 25.1 µM [inhibitor, single point]",–
O=C(O)c1cc2c(s1)-c1ccccc1OC2,"inconclusive: 31.6 µM [activator, partial curve]",–
C=CCN1C(=O)C(Cc2ccc(OC)cc2)SC1=Nc1ccc(C(=O)O)cc1 (stereo not drawn),"inconclusive: 28.2 µM [inhibitor, partial curve, poor fit]",–
COc1ccc(/C=N/NC(=O)c2ccoc2C)cc1OC,"inconclusive: 31.6 µM [inhibitor, partial curve, poor fit]",–
O=C1NC(c2ccccc2)=C(c2ccc3ccccc3n2)C(c2ccc(F)cc2)N1 (stereo not drawn),–,inconclusive: -18.8% [inhibitor]
COc1ccc(-c2cn3cccnc3n2)cc1,"inconclusive: 35.5 µM [activator, partial curve]",–
Cc1nc2ccc(Nc3nc4cc(S(=O)(=O)N5CCOCC5)ccc4o3)cc2s1,–,inconclusive: -17% [inhibitor]
CCOc1ccc2[nH]c(=O)c(CN(Cc3nnnn3Cc3ccccc3)CC3CCCO3)cc2c1 (stereo not drawn),"inconclusive: 50.1 µM [activator, single point]",–
O=C(CC1C(=O)NCCN1Cc1ccccc1C(F)(F)F)NCCc1ccccn1 (stereo not drawn),–,inconclusive: 11.1% [activator]
Cc1cc(C)cc(N(C(=O)CNS(=O)(=O)c2ccccc2)C(C(=O)NCc2ccccc2)c2ccc(C)o2)c1 (stereo not drawn),"inconclusive: 4.47 µM [inhibitor, full curve, poor fit]",–
Cc1csc(=S)n1-c1ccccc1,inactive,–
Cn1c(=O)c(C(=O)NC2CCCCCCC2)c(O)c2ccccc21,"inconclusive: 11.2 µM [inhibitor, partial curve, poor fit]",–
CC(C)c1nnc(NC(=O)CS(=O)(=O)Cc2ccccc2)s1,"inconclusive: 12.6 µM [activator, single point]",–
O=C(CSc1nnc(-c2ccccc2)n1CC1CCCO1)N1CCCC1 (stereo not drawn),"inconclusive: 0.891 µM [inhibitor, full curve]",–
COc1ccc(C(C(=O)NC(C)(C)C)N(Cc2ccccc2)C(=O)CCC(=O)Nc2cc(C)on2)cc1 (stereo not drawn),"inconclusive: 50.1 µM [inhibitor, single point]",–
CCc1ccc(/C=C2\Oc3cc(OC(=O)N4CCOCC4)ccc3C2=O)cc1,–,inconclusive: -13.5% [inhibitor] [at 15.4 µM]
CCN(CC)S(=O)(=O)c1ccc2c(c1)nc(CCC(=O)Nc1ccc(N3CCOCC3)cc1)n2C,–,inconclusive: -15.7% [inhibitor]
Cc1ccc(/C=N/Nc2nc3ccccc3[nH]2)s1,inactive,–
N#CC1=C(N)NC(SCC(=O)c2ccccc2)=C(C#N)C12CCCC2,"inconclusive: 11.2 µM [inhibitor, full curve]",–
